# Laboratory results taken from the supplement of paper PMC3334620.
# The full ranking holds about 33,000 sequences; the median of “E-score (-0.5 to 0.5)” is about -0.011, and the highest 2% start at about 0.28. Some of the results follow.
# Target: T1, Gcr1 (UniProt P07261)
# T1 sequence: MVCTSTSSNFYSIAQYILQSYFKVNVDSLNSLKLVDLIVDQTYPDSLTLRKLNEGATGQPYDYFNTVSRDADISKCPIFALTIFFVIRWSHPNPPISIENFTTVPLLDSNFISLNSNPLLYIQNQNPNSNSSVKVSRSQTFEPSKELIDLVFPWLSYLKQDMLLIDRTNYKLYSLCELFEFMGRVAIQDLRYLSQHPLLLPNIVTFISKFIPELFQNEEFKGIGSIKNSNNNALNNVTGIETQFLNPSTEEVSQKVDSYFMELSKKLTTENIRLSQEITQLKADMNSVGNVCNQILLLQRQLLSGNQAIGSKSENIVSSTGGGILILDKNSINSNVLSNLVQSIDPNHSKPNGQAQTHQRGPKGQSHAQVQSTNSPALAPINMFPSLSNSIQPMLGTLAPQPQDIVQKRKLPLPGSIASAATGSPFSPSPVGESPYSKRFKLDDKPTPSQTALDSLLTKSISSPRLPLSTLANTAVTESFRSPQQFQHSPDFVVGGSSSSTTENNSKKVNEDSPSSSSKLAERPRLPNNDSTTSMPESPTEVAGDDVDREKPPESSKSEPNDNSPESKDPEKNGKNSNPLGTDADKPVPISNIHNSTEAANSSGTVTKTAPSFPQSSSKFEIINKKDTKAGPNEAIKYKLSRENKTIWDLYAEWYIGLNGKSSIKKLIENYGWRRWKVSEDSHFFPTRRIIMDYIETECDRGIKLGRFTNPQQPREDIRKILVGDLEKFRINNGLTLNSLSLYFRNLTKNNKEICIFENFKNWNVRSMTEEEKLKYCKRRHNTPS
# Assay: PBM E-score (8-mer binding enrichment) (E-score (-0.5 to 0.5)); higher = stronger / more preferred TF binding; most listed sequences are background and not binding sites
# Conditions: protein concentration: 100 nM; construct: GST-full length
# Method in brief: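 GST-tagged yeast TFs (full-length or DNA-binding domain) were made by PURExpress in vitro transcription/translation and applied at about 100-200 nM to universal all-10-mer Agilent arrays. The arrays were made double-stranded by primer extension, on fresh or once-stripped slides. Bound protein was detected with fluorescent anti-GST, and scans were normalised with masliner. Each ungapped eight-base word, pooled with its reverse complement, received an E-score (modified Wilcoxon-Mann-Whitney statistic) from the Universal PBM Analysis Suite.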
row,Sequence,PBM E-score
1,AGGTCAGC,-0.175
2,AAGATTTA,0.153
3,GCAGCTAC,0.267
4,CTCTAAAA,0.0248
5,CAAGTTAG,-0.138
6,AGTACGTC,-0.0158
7,ATAGATCG,-0.126
8,CACGCAGC,0.295
9,AATACTTG,-0.0203
10,ATTGCCGC,-0.0608
11,ATGGAGGG,-0.218
12,GGCTCCCA,0.348
13,CAACCACC,0.122
14,TCACCCAA,-0.00294
15,GCCGTCGA,-0.197
16,CGTTCTAA,0.0491
17,AAGATGGG,0.137
18,CGGTACAA,0.0327
19,AGAATAAC,0.0457
20,AAAATATC,0.129
21,ACCTGAAC,-0.051
22,GCTGATCC,-0.0746
23,AGTCCATG,-0.045
24,AGGCTGGC,-0.163

row,Sequence,PBM E-score
1,CGGCCCGC,-0.26
2,CGGTAGAG,0.0493
3,AGAAGCCT,0.273
4,GTGGATAA,0.00407
5,GAGGTCGA,-0.222
6,AGGCCTTG,-0.321
7,AAACAACG,0.0681
8,AGTTAAGA,0.0167
9,CGCTGACC,-0.127
10,AAGTTCAG,-0.00811
11,AGCACTTG,-0.15
12,GACTGGTA,0.172
13,AAACGCAG,-0.0998
14,CTAGCACC,0.31
15,ACCTTCCC,-0.00014
16,AGCAGAAC,-0.0186
17,CGGGAATA,0.0358
18,GGGGTTAC,-0.215
19,CTTGGACC,-0.0788
20,ACGTTGGC,-0.122
21,CGTATTGC,-0.0106
22,GACCATAC,0.159
23,GGCGACCC,-0.096
24,GGGGGTTA,-0.256

row,Sequence,PBM E-score
1,CCGGGATA,0.147
2,CGCCGTCC,0.149
3,GTACCGGA,0.0665
4,AGTACTCA,0.00491
5,ACTAGAGA,-0.0967
6,CCGGTCTC,0.0594
7,AGCATGCG,-0.268
8,CGGGCGAC,0.177
9,AGTCGTGA,-0.0313
10,CTATGTGC,0.00208
11,CAAGTGTA,-0.255
12,ACAATCCC,-0.0674
13,AAGTTGGT,0.0907
14,ACAAGGAA,0.193
15,CTACTATA,0.282
16,GCGCGCAA,0.176
17,TACAACGA,-0.0189
18,CAATTTGA,0.193
19,CGGAGGTC,-0.139
20,CCCTGACA,-0.0595
21,CCCCGCGA,-0.0994
22,ATAGCCCA,-0.075
23,GAGGACAA,-0.19
24,AATCTATG,0.163

row,Sequence,PBM E-score
1,GATTTGAC,-0.113
2,CCAGCTGC,0.218
3,CTGTCGGC,-0.152
4,AGCGTGGC,-0.133
5,ACTTCGCT,-0.174
6,CATAGTTA,-0.15
7,ACACGCTG,0.167
8,CGAAACCC,-0.0492
9,ATAAGCTC,-0.102
10,GAGGGGCC,-0.0344
11,CTCCGCCA,-0.0655
12,TATGGTGA,0.00859
13,CGATCCCG,-0.0355
14,CAAACTAA,0.00609
15,AAGGATTC,-0.00527
16,GGGACCAA,0.134
17,GCTCAGCC,-0.246
18,ACTTGCCC,-0.0641
19,AATATACT,-0.0886
20,CCTTACAA,0.027
21,AGTAGTAG,0.144
22,ACAGAACA,-0.0374
